Read counts are not given, so values of variants with three or more changes are uncertain.
B1: LINE1-full (parent)
chain: UACGUAGGUGGUUUUCCCCUGAUAGUGCUAAGGGGGCCUGGAAGUUUGGACUGGGCAGAGCUCAACACAGCGUGGCAAAGUGGCUGUGGCUAGACUGCCUCUCUGGAUUCCUCGUCACUCAGCAGGGCAUCUCUGAGAGAAAUGCC

Variants of: B1
Assay: self-cleavage, relative activity (ratio to wild type); higher = more cleavage; in vitro, sequencing; the parent is a self-cleaving ribozyme

| Variant | self-cleavage |
| --- | --- |
| UACGUGGGAGGUUUUCCCCUGAUAGUGCUAAGGGGGCCUGGAAGUUUGGACUGGGCAGAGCUCAACACAGCGUGGCAAAGUGGCUGUGGCUAGACUGCCUCUCUGGAUUCCUCGUCACUCAGCUGGGCAUCUCUGAGAGAGAUGCC [A6G U9A A124U A141G] | 1.06 |
| UACGUGGGUGGCUUUCCCCUGAUAGUGCUAAGGGGGCCUGGAAGUUUGGACUGGGCAGAGCUCAACACAGCGUGGCAAAGUGGCUGUGGCUAGACUGCCUCCCUGGAUUCCUCGUCACUCAGCAGGGCAUCUCUGAGAGAAAUGCC [A6G U12C U102C] | 0.61 |
| UACGUGGUUGGGUUUCCCCUGAUAGUGCUAAGGGGGCCUGGAAGUUUGGACUGGGCAAAGCUCAACACAGCGUGGCAAAGUGGCUGUGGCCAGACUGCCCCUCUGGAUUCCUCGUCACUCAGCAGGGCAUCUCUGAGAGAGAUGCC [A6G G8U U12G G58A U91C U100C A141G] | 0 |
| UACGUGAGUGGUUUUCCCCUGAUAGUGCUAAGGGGGCCUGGAAGUUUGGACUGGGCAGAGCUCGACACAGCGUGGCAAAGUGGCUGUGGCUAGACCGCCUCUCUGGAUUCCUCGUCACUCAGCAGGGCAUCUCUGAGAGGAAUGCC [A6G G7A A64G U96C A140G] | 0.44 |
| UACGUGGGUGGUUUUCCCCUGAUAGUGCUAAGGGGGCUUGGAAGUUUGGACAGGGCAGAGCUUAACACAGCGUGGCAAAGUGCCUGUGGCUAGACUGCCUCUCUGGAUUCCUCGUCACUCAGCAGGGCAUCUCUGAGAGAAAUGCU [A6G C38U U52A C63U G83C C146U] | 0.34 |
| UACGUGUGUGGUUUUCCCCUGAUAGUGCUAAGGGGGCCUGGAAGUUUGGACUGGGCAGUGCUCAACACAGCGUGGCAAAGUGGCUGUGGCUAGGCUGCCUCUCUGGAUUCCUCGUCACUCAGCAGGGCACCUCUGAGAGAUAUGCC [A6G G7U A59U A94G U130C A141U] | 1.97 |
| UACGUGGGUGGUUUUCCCCUGAUAGUGCUAAGGAGGCCUGGAAGUUCGGACUGGGCAGAGCUCAACACAGCGCGGCAAAGUGGCUGUGGCUAGACUGCCUCUCUGGAUUCCUCGUCACUCAGCAGGGCAUCUCUGAGAGAAAUGCC [A6G G34A U47C U73C] | 0.51 |
| UACGUGGGUGGGUUUCCCCUGAUAGUGCUAAGGGGGCCUGGAAGUCUGGACUGGGCAGAGCUCAACACAGCGUGGCAAAGUGGCUGUGGCUAGACUGCCUCUCUGGAUUCCUCGUCACUCAGCAGGGCAUCUCUGAGAGAAAUGCC [A6G U12G U46C] | 0.29 |
| UACGUGGGUGGUUUUCCCCUGAUAGUGCUAAGGGGGCCUGGAAGUUUGGACUGGGCAGAGCUCAACACAGCGUGGCAAAGUGGCUGUGGCUAGACUGCCUUUCUGGAUUCCUCGUCACUCAGCGGGGCAUCUCCGAGAGAAAUGCC [A6G C101U A124G U134C] | 1.97 |
| UACGUGGGUGGCUUCCCCCUGAUAGUGCUGAGGGGGCCUGGAAGUUUGGACUGGGCAGAGCUCAACACAGCGUGGCAAAGUGGCUGUGGCUAGACUGCCUCUCUGGAUUCCACGUCACUCAGCAGGGCAUCUCUGAGAGAAAUGCC [A6G U12C U15C A30G U112A] | 0 |
| UACGUGGGUGGUUUUCCCCUGAUAGUGCUAAGGGGGCCUGGAAGUUUGGACUGGGCAGAGCUCAACACAGCGUGGCAAAGUGGCUGUGGCUUGGCUGCCUCUCUGGAUCCCUCGUCACUCAGCAGGGCAUCUCUGAGAGAAAUGCC [A6G A92U A94G U109C] | 0.31 |
| UACGUGGGUGGUUUUCCCCUGAUAGUGCUAAGGGGGCCUGGAAGUUUGGACUGGGCAGAGCUCAACACAGCGUGGCAAAGUGGCUGUGGCUAGACUGCCUCUCUGGUUUCCUCUUCACUCAGCAGGGCAUCUCUGAGAGAAAUGCC [A6G A107U G114U] | 0.7 |
| UACGUGGGUGGAUUUCCCCUGAUAGUGCUAAGGGGGCCUGGAAGUUUGGACUGGGCAGAGCUCAACACAGCGUGGCAAAGUGGCUGUGGCUAGACUGCCACUCUGGAUUCCUCGUCACUCGGCAGGGCAUCUCUGAGAGAAAUGCC [A6G U12A U100A A121G] | 0 |
| UACGUGGGCGGUUUUCCCCUGAUAGUGCUAAGGGGGCCUGGAAGUUUGGACUGGGCGGAGCUCAACACAGCGUGGCAAAGUGGCUGUGGCUAGACUGCCUCUCUGGAUUCCUCGUCACUCAGCAGGGCAUCUCUGAGAGAAAUGCC [A6G U9C A57G] | 1.15 |
| UACGUGGGUGGUUUUCCCCUGAUAGUGCUAAGGGGGCCUGGAAGUUUGGACUGGGCAGAGCUCAACACAGCGUGGCAAAGUGGCUAUGGCUAGACUGCCUCUCUGGAUUCCUCGUCACACAGCAGGGCAUCUCUGAGAGAAAUGCC [A6G G86A U119A] | 0.12 |
| UACGUGGGUGGUUUUCCCCUGAUAGUGCUAAGGGGGCCUGGAAGUUUGGACUGGGCAGAGCUCAACACAGCGUGGCAAAGUGGCUGUGGCUAGGCUGCCUCUCUGGAUUCCUCGUCACUCAGCAGGGCAUCUCUGAUAGAAAUGCC [A6G A94G G137U] | 0.62 |
| UACGUGGGUGGUUUUCCCCUGAUAGUGCUAAGGGGGCCUGGAAGUUUGGACUGGGCAGAGCUCAACACAGCGUGGCAAGGUGGCUGUGGCUAGUCUGCCUCUCUGGAUUCCUCGUCACUCAGCAGGGCAUCUCUGAGAGAAAUGCC [A6G A79G A94U] | 0.57 |
| UACGUGGGUGGUUUUCCCCUGAUAGUGCUAAGGGGGCCUGGAAGUUUGGAUUGGGCAGAGCUCAACACAGCGUGGCAAAGUGGCUGUGGCUAGACUGCCACUCUGGAUUCCUCGUCACUCAGCAGGGCAUCUCUGAGAGAAAUGCC [A6G C51U U100A] | 0.78 |
| UACGUGGGUGGUUUUCCCCUGAUAGUGCUAAGGGGGCCUGGAAGUUUGGACUGGGCAGAUCUCAACACAGCGUGGCAAAGUGGCUGUGGCUAGACUGCCUCUCUGGAUUCCUCGUCUCUCAGCAGGGCAUCUCUGAGAGAAAUGCC [A6G G60U A117U] | 0.15 |
